Assay results as given in publication PMC4336329 (PLoS ONE, 2015).
Out of some 310,000 compounds screened, about 2,200 (0.71%) showed an effect of 50% or more. The effect is printed as a negative number. Some of the results follow. Where a SMILES comes first, the peptide text is derived from it. [ ]: non-standard residue; d: D form. The star is where a group is joined. ξ: configuration not given here. Boc = CC(C)(C)OC(=O)*; NHBn = c1ccc(CN*)cc1; ξV = CC(C)C(N)C(=O)O

What follows are compounds tested against human ether-à-go-go-related gene (hERG) potassium channel (human, UniProt Q12809) (assay: primary screen, population patch clamp on CHO cells stably expressing hERG).
Sequence of human ether-à-go-go-related gene (hERG) potassium channel (Q12809 whole entry, looked up): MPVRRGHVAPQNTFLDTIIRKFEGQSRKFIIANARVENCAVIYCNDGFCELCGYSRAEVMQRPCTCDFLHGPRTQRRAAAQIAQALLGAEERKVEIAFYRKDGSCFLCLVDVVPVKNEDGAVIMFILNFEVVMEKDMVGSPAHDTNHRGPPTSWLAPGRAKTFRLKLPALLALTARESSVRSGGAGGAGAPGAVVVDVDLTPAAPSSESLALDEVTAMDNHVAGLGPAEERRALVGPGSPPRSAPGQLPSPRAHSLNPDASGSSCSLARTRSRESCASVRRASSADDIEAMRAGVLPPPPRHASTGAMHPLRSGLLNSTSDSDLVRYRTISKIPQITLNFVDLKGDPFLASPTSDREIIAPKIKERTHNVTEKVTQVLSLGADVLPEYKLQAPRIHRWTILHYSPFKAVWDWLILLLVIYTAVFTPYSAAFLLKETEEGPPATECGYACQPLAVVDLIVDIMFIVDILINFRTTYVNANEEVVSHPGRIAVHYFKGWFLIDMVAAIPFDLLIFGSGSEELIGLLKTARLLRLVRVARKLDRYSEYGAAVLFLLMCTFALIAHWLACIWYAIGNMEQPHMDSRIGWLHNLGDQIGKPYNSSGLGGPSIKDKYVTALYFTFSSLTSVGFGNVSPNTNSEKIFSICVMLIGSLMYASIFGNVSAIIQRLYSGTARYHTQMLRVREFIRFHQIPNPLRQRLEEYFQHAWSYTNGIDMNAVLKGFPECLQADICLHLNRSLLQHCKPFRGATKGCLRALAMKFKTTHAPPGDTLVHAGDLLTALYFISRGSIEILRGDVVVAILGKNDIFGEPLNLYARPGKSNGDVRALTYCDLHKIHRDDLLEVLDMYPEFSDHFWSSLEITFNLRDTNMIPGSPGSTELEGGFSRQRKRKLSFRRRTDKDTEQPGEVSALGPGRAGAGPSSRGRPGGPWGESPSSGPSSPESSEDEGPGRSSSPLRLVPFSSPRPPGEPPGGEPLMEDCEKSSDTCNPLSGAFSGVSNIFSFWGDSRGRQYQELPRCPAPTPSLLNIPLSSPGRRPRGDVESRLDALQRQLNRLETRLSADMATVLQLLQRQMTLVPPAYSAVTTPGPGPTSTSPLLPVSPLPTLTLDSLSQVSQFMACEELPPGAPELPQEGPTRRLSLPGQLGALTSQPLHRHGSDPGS

SMILES | hERG current change (%, negative = inhibition) at 1uM
COc1ccccc1-n1c(CNC(=O)c2ccco2)n[nH]c1=S | 16.7%
CCCNC(=O)COC(=O)C1CCN(S(=O)(=O)c2ccc3c(c2)OCCO3)CC1 | 10.7%
CN(CCOc1ccc(Cl)cc1)C(=O)c1cc(S(=O)(=O)N2CCOCC2)ccc1N1CCCC1 | -21.8%
Cc1ccccc1C(=O)NCC(C)NC(=O)c1ccccc1C (centres unmarked) | 11.5%
O=C(Cc1ccc(Cl)cc1)NNC1CC(=O)N(c2ccc3ccccc3c2)C1=O (centres unmarked) | 6.62%
Cc1cc(Br)ccc1NC(=O)CNC(=O)c1cnn(C)c1 | 19%
C/C(=N/NC(=O)c1ccc(C)s1)c1cccc(NC(=O)c2ccoc2C)c1 | 0.398%
[O-][n+]1c2ccccc2cc2ccccc21 | 13.2%
CC(C)(C)OC(=O)c1c(N)n(CCCN2CCCC2=O)c2nc3ccccc3nc12 | 5.21%
CC(=O)Nc1ccc(S(=O)(=O)Nc2ccc3c(c2)OCCO3)cc1Cl | 15.2%
O=[N+]([O-])c1ccccc1/C=N/NC1=NCCN1 | 11.5%
COc1cc(Cl)c(C)cc1NC(=O)CSc1nnc(-c2cccnc2)n1Cc1ccco1 | -10%
Cc1ccc(S(=O)(=O)N2CCCCC2)cc1 | 15%
COC(c1ccccc1)(c1ccccc1)C(Oc1nccc(C)n1)C(=O)O (centres unmarked) | 22.6%
CCn1cc(/C=C(\NC(=O)c2ccccc2OC)C(=O)N2CCN(C)CC2)c2ccccc21 | 7.03%
Cc1cc(NC(=O)COc2ccccc2)n(-c2ccccc2)n1 | 7.62%
CC(=O)OC(C)C(=O)NS(=O)(=O)c1ccc(C)cc1 (centres unmarked) | 4.92%
Cc1cccc(NS(=O)(=O)c2cccc(C(=O)NCC(c3ccco3)N3CCCCC3)c2)c1 (centres unmarked) | 9.05%
CCCCC(=O)Nc1nc(C)c(-c2csc(Nc3ccc(Cl)cc3)n2)s1 | -5.68%
CC1CCCN(C(=O)CN2CCC(c3nc4ccc(Cl)cc4[nH]3)CC2)C1 (centres unmarked) | -35.9%
CC1Cc2nc(SCC(=O)Nc3ccccc3F)n(C)c(=O)c2S1 (centres unmarked) | 1.68%
Cc1ccc(NC(=O)c2cc(S(=O)(=O)c3ccccc3)ccc2Cl)cc1 | 9.7%
CCn1nc(NC(=O)CC(C)C)c2cc3cccc(C)c3nc21 | 7.67%

SMILES | hERG current change (%, negative = inhibition) at 1uM
Cc1c(C(=O)N2CCCCC2)c(S(=O)(=O)N2c3ccccc3CC2C)c(C)n1C (centres unmarked) | 10.4%
O=C(CSc1nnc(Cn2nnc3ccccc32)o1)Nc1ccc(Cl)cc1 | 9.52%
COc1cc(NC(=O)CN2c3cccc4cccc(c34)S2(=O)=O)cc(OC)c1OC | 5.62%
Cc1ccc(Cn2cc(SCC(=O)Nc3nccs3)c3ccccc32)cc1 | 5.73%
Nc1cc(=O)[nH]c(SCC(=O)Nc2ccc(S(=O)(=O)N3CCCCC3)cc2)n1 | 14.7%
COc1ccc(/C(C)=N/N=C2/NC(=O)CC(C(=O)O)S2)cc1F (centres unmarked) | 12.3%
Cn1c(=O)c2c(-c3ccc(C(C)(C)C)cc3)n(CC3CCCO3)cc2n(C)c1=O (centres unmarked) | 6.51%
N#CC1=C(S)N(c2ccccc2)C2(CCCCC2)NC1=O | -1.63%
CCCNC(=O)CSc1ccc(S(=O)(=O)N2CCCC2)cn1 | 10.2%
Cc1ccccc1CN(c1ccc(C(=O)N/N=C/c2ccc(OCC(N)=O)cc2)cc1)S(C)(=O)=O | 3.63%
O=C(NC1CCSC1=O)c1ccc(Oc2ccc(F)cc2)nc1 (centres unmarked) | 18.1%
C/C(CCC(C)C)=N\NC(=S)NCc1ccccc1 | 5.51%
COc1ccc(NS(=O)(=O)c2ccc(N3CCOCC3)c(NC(=O)C(C)C)c2)cc1 | -1.29%
Cc1cccc(N2C(S)=C(C#N)C(=O)NC2c2ccco2)c1 (centres unmarked) | 3.99%
CCn1c(CNC(=O)Cc2ccc(OC)cc2)nnc1SCC(=O)NC1CCCCC1 | -7.08%
Cc1cc2oc(C(=O)NCc3ccc(S(N)(=O)=O)cc3)c(C)c2cc1C | 7.87%
C=CCn1c(O)c(N=Nc2ccccc2)c2ccccc21 | 3.26%
CCC(C)NC(=O)c1ccc2c(SCC(=O)O)c3c(nc2c1)CCCC3 (centres unmarked) | 3.13%
COCc1cc(C)n(CC(=O)N2CCCC2)c(=O)c1C#N | 12%
COc1ccc(NC(=O)COC(=O)CC2CCCC2)cc1Cl | 2.83%
O=C(Nc1ccccc1C(=O)O)/C(=C/c1ccc(Cl)cc1Cl)NC(=O)c1ccco1 | 21.3%
O=C(NNS(=O)(=O)c1ccccc1Cl)c1nn(-c2ccc(F)cc2)ccc1=O | 13.1%
CC(C)C(NC(=O)CNC(=O)OC(C)(C)C)C(=O)NCc1ccccc1 (stereo not drawn) (Boc-Gly-[ξV]-NHBn) | 7.3%

SMILES | hERG current change (%, negative = inhibition) at 1uM
CC(C)(C)c1cc(NC(=O)c2c(F)cccc2Cl)n(-c2ccccc2)n1 | 14.8%
CC(=O)c1cccc(N(C(=O)c2ccco2)C(C(=O)NC2CCCC2)c2ccc(N3CCOCC3)cc2)c1 (centres unmarked) | 13.1%
O=C(Nc1c2ccccc2nc2ccccc12)C(Cl)(Cl)Cl | 1.68%
COc1ccccc1CCNC(=O)Cn1ccc2cc(S(=O)(=O)N3CCC(C)CC3)ccc21 | 24.2%
COCCn1c(=S)[nH]c2cc(C(=O)NCCc3ccc(OC)c(OC)c3)ccc2c1=O | 5.51%
Cc1nc2ccc(Cl)cc2c(-c2ccccc2F)c1CC(=O)O | -0.722%
CC(=O)c1ccc(-n2c(CCC(=O)O)ccc2-c2ccc(C)cc2)cc1 | 9.83%
C/C(N)=C(/C#N)C(=O)CSc1nnnn1-c1ccccc1 | 13.9%
Cn1c(CSCc2ccc(Cl)c(Cl)c2)nnc1SCC(=O)Nc1nccs1 | 2.81%
O=C(CCC(=O)N(CC(=O)NC1CCCCC1)c1ccc(F)cc1)Nc1nccs1 | 1.74%
COc1ccc(-c2cc(C(=O)Nc3cccnc3)no2)cc1OC | 16.2%
CC1CCN(C(=O)CCCOc2cc(=O)n(C)c3ccccc23)CC1 | -12.2%
Cc1ccccc1N1C(N)=NC(N)=NC1(C)C.Cl | 7.03%
Cc1occc1C(=O)NNC(=O)c1ccccc1C(=O)O | 10.9%
c1coc(CNc2c3c(nc4ccccc24)CCC3)c1 | -82%
Cc1ccc(S(=O)(=O)NNC(=O)C(O)(c2ccccc2)c2ccccc2)cc1 | 7.47%
CCOC(=O)c1[nH]c(C)c(C(=O)Nc2ccc(Cl)cc2)c1C | 5.71%
CSc1nnc(C(C)(C)C)c(=O)n1/N=C/c1c(O)ccc2ccccc12 | 11%
CC1CC(=O)Nc2ccccc2N1C(=O)COc1cc(Cl)ccc1Cl (centres unmarked) | 7.85%
OC(c1nc2ccccc2[nH]1)C(O)C(O)C(O)c1nc2ccccc2[nH]1 (centres unmarked) | 11.4%
COc1cccc(C(=O)/C=C/c2ccc(OCC#N)c(OC)c2)c1 | 14.9%
COc1ccccc1N1CCN(C(=O)CN2C(=O)c3ccccc3C2=O)CC1 | 10.8%
Cc1cnc(C(=O)Nc2ccc(N3CCCCC3)cc2)cn1 | 11.5%

SMILES | hERG current change (%, negative = inhibition) at 1uM
CC(=O)c1ccc(NC(=O)CN2C(=O)NC(C)(C3CCCCC3)C2=O)cc1 (centres unmarked) | 8.55%
Cc1nc(C)n(CC(C)C(=O)N2CCN(S(=O)(=O)c3ccc(Cl)cc3)CC2)n1 (centres unmarked) | 1.01%
O=C1CC(c2cccnc2)c2cc3c(cc2N1)OCO3 (centres unmarked) | 26.7%
Cc1ccccc1OCC(=O)N/N=C/c1cccc2cccnc12 | 12.5%
O=C(CN1C(=O)c2ccccc2S1(=O)=O)NCCSCc1ccccc1Cl | 4.36%
Cc1cc(C)n2nc(CC(=O)NC3CCCCCCC3)nc2n1 | -36.9%
CN(C)S(=O)(=O)c1cccc(NC(=S)NC(=O)C2CCCCC2)c1 | 5.37%
Cc1ccc(C)c(N2CN(Cc3ccco3)CNC2=S)c1 | 4.28%
O=C1CCC(=O)c2oc3ccccc3c2N1 | 7.22%
Cc1oncc1C(=S)Nc1ccccc1 | 12.9%
O=C(CSc1nnc(-c2cccnc2)o1)Nc1ccc(Cl)cc1 | -0.351%
COc1cc(F)c(S(=O)(=O)N2CCOc3ccccc32)cc1OC | 10.9%
C/C(=N\NC(=O)COc1ccc([N+](=O)[O-])cc1)c1ccco1 | -7.63%
COc1cc2c(cc1OC)C(C)N(C(C)=O)CC2 (centres unmarked) | 3.77%
CCOCCCNC(=S)N1CCC(C(=O)c2ccc3c(c2)OCCO3)CC1 | -3.48%
OCCCCO | 9.62%
Cc1ccc(N(Cc2ccc(C(=O)NN=C3CCN(C)CC3)cc2)S(C)(=O)=O)cc1C | 9.53%
O=C(NCC1CCCN1S(=O)(=O)c1cccs1)c1cccc(F)c1 (centres unmarked) | 19.4%
CCN(CC(=O)Nc1ccc(C(C)=O)cc1)CC(=O)Nc1ccccc1C(F)(F)F | 16.2%
Oc1ccc(/C=C/c2nc(-c3ccccc3O)n(-c3ccccc3)n2)cc1 | -1.25%
